Test results published in PubChem BioAssay AID651711 (Broad Institute, 2012).
The whole screen tested about 350,000 compounds, of which about 180 (0.051%) were called active. The shares of active, inactive and inconclusive entries below differ from those in the screen.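 Rule for the calls: active = mean replicate inhibition above about 25%, with every replicate also reaching it (limit read from the data, passing the limit was not always enough); inconclusive = only one of those two criteria met; inactive = neither criterion met.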

Target: Protein disulfide-isomerase A6 (Homo sapiens) (UniProt Q15084)
Sequence of UniProt Q15084 (Q15084 whole entry, looked up): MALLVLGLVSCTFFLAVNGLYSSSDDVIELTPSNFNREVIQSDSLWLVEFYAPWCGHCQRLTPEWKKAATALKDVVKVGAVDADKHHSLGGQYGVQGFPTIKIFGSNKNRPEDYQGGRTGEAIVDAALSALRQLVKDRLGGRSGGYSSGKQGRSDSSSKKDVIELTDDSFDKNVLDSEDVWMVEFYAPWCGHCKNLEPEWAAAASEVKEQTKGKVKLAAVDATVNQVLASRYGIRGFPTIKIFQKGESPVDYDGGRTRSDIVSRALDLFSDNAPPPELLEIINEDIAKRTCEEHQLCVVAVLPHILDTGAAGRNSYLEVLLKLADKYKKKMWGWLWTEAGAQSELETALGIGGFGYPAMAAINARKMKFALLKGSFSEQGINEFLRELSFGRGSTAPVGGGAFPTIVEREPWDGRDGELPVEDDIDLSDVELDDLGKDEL
Experiment: inhibitors of ERp5-driven insulin aggregation, primary screen, biochemical, turbidity, absorbance 650 nm, single point (AID 651711)
Settings: 90 min, at 9.99 µM, active compounds read high

Cc1ccc(SC2CCN(C(=O)C3CCC(=O)N(C4CC4)C3)CC2)cc1 (configuration not stated) was tested. Which inhibition did it give?
The inhibition was inconclusive: 36.6%.

C[C@H](CO)N1C[C@H](C)[C@@H](CN(C)Cc2ccc(Oc3ccccc3)cc2)Oc2c(NC(=O)CCCCCC(=O)Nc3ccccc3N)cccc2C1=O was tested. Which inhibition did it give?
The inhibition was inactive: 10.3%.

How did the inhibition turn out when O=C(N[C@@H]1CC[C@@H](CCn2cc(-c3ccccc3)nn2)O[C@@H]1CO)c1cnccn1 was run?
Its inhibition is inconclusive: 42.8%.

CCOc1ccc(-c2n[nH]c(C(=O)NN)c2C)cc1 was tested. Which inhibition did it give?
Its inhibition is inactive: 6.18%.

Which inhibition does the source give for COc1ccc(N2CCN(C(=O)[C@@H](NC(=O)c3ccccc3Cl)C(C)C)CC2)cc1 here?
The inhibition was inactive: 1.47%.

O=S(c1ccccc1)C(c1ccccc1)c1ccccc1 (configuration not stated) was tested. Which inhibition did it give?
Its inhibition is inconclusive: 28.4%.

O=C(NNC(=O)c1oc2ccccc2c1-n1cccc1)c1ccco1 was tested. Which inhibition did it give?
The inhibition was inconclusive: 43.8%.

Which inhibition does the source give for COCCC(=O)Nc1c(-c2ccccc2)c2cc(Br)ccc2[nH]c1=O here?
The inhibition was inconclusive: 37.2%.

Which inhibition does the source give for CNC(=O)C[C@@H]1CC[C@@H]2[C@@H](COc3ccc(NC(=O)c4cccc(OC)c4)cc3C(=O)N2C)O1 here?
The inhibition was inactive: 5%.

With O=C(Nc1ccc(F)cc1)N[C@@H]1CC[C@H](CCNC(=O)c2ccccc2F)O[C@H]1CO as the molecule, how does the inhibition read?
Its inhibition is inconclusive: 25.1%.

How did the inhibition turn out when C[C@H](CO)N1C[C@H](C)[C@H](CN(C)Cc2ccccc2C(F)(F)F)OCc2ccccc2-c2c(n(C)c3ccccc23)C1=O was run?
The inhibition was inactive: 3.42%.

How did the inhibition turn out when Cc1noc(C)c1NC(=O)N(C)C[C@H]1Oc2c(NS(=O)(=O)c3ccc(Cl)cc3)cccc2C(=O)N([C@@H](C)CO)C[C@@H]1C was run?
The inhibition was active: 25%.

How did the inhibition turn out when c1ccc(-c2nnc(SCC3CCCO3)nc2-c2ccccc2)cc1 (configuration not stated) was run?
Its inhibition is inconclusive: 41.8%.

Which inhibition does the source give for CO[C@@H](CN(C)S(=O)(=O)c1cn(C)cn1)[C@H](C)CN(C(=O)Nc1ccc(F)cc1)[C@H](C)CO here?
The inhibition was inactive: -1.22%.

Nn1cc(-c2ccccc2)nc1SCC(=O)Nc1ccc2c(c1)OCO2 was tested. Which inhibition did it give?
The inhibition was inconclusive: 33.8%.

For Cc1ccc(-c2nn(CC(=O)NCC3CCCO3)c(=O)c3ccccc23)cc1 (configuration not stated), which inhibition is on record?
The inhibition was inconclusive: 37.9%.

With COc1cccc(NC(=O)COc2ccc3c(c2)CCC3)c1 as the molecule, how does the inhibition read?
Its inhibition is inactive: 0.332%.

How did the inhibition turn out when Cc1ccc(Sc2ccc(/C=C3/C(=O)NN(c4ccccc4)C3=O)o2)cc1 was run?
Its inhibition is inconclusive: 27.1%.

How did the inhibition turn out when Cc1ccc2nc(C)cc(Nc3ccc([N+](=O)[O-])cc3)c2c1 was run?
The inhibition was inconclusive: 45%.

CC(C(=O)N1CCOCC1)(c1ccccc1)c1ccccc1 was tested. Which inhibition did it give?
The inhibition was inconclusive: 51.2%.

With O=C(C1CCN(S(=O)(=O)N2CCOCC2)CC1)N1CCOCC1 as the molecule, how does the inhibition read?
Its inhibition is inconclusive: 47.2%.

For CCCC(c1nnnn1Cc1ccc2c(c1)OCO2)N1CCC(C(N)=O)CC1 (configuration not stated), which inhibition is on record?
Its inhibition is inconclusive: 48.5%.
